According to paper PMC7997032, “Organic synthesis and anti-influenza A virus activity of cyclobakuchiols A, B, C, and D” (PLoS ONE, 2021):

Tests used:
A/PR/8/34 virus = assay: Immunofluorescence staining of viral NP in influenza A virus-infected MDCK cells; conditions: A/PR/8/34, MOI 0.1, 24 h, Fig 4A
A/WSN/33 virus = assay: as above; conditions: A/WSN/33, MOI 0.1, 24 h, Fig 4C

`C=C[C@@](C)(/C=C/c1ccc(O)cc1)CCC=C(C)C` [(+)-(S)-bakuchiol, reference compound] was tested, and the “concentrations at which the number of NP-stained cells was reduced compared to DMSO” value (A/PR/8/34 virus) was 3.1 to 12.5 µM and the “number of NP-stained cells compared with DMSO” value (A/WSN/33 virus) was “equal to that in the DMSO-treated cells”.
With `C=C[C@]1(C)CCC(C(C)(C)O)C(c2ccc(O)cc2)C1` (stereo in doubt) [cyclobakuchiol D] the “concentrations at which the number of NP-stained cells was reduced compared to DMSO” value (A/PR/8/34 virus) was 6.3 to 12.5 µM.
